Screen size: about 310,000 compounds; about 2,200 (0.71%) showed an effect of 50% or more. The effect is printed as a negative number. The list shows a part of the results.

For this experiment, the target named is human ether-à-go-go-related gene (hERG) potassium channel (human, UniProt Q12809). Briefly: primary screen, population patch clamp on CHO cells stably expressing hERG.
Chain of human ether-à-go-go-related gene (hERG) potassium channel (Q12809 whole entry, looked up): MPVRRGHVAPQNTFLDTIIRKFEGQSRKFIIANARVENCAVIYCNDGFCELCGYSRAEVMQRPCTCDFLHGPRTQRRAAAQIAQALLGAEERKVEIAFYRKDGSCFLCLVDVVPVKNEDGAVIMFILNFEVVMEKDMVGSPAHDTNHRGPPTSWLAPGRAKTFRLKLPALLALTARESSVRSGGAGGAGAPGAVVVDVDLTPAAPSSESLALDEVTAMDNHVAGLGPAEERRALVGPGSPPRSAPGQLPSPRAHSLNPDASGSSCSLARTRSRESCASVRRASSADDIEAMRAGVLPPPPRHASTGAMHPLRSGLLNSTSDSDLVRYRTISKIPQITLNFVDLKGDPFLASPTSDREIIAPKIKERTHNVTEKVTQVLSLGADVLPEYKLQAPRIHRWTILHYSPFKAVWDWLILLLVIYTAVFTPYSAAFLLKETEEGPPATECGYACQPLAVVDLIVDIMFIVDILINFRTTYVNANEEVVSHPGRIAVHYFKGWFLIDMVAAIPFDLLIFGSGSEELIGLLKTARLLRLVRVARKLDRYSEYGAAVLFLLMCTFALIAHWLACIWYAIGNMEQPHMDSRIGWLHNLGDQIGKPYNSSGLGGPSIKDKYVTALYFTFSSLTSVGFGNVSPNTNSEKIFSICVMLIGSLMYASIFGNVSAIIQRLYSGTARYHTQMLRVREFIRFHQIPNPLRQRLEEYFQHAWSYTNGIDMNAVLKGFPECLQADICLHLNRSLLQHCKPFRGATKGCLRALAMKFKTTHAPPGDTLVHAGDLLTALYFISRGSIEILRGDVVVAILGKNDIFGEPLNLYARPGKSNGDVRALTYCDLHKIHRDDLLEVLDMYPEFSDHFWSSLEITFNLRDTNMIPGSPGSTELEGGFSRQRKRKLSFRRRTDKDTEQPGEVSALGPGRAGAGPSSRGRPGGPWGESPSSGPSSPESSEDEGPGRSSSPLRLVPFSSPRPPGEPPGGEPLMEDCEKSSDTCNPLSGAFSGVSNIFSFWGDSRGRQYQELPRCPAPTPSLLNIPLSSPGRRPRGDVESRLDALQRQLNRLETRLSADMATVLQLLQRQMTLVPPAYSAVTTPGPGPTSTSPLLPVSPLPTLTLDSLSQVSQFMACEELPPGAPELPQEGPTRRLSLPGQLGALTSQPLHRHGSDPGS
On to `Cc1ccc(OCC(=O)NC2CC(C)(C)NC(C)(C)C2)c(C)c1`, for which the “hERG current change (%, negative = inhibition) at 1uM” value is recorded as 10.1%.
With `COc1cccc(C(=O)Nc2sc(C(C)C)cc2C(N)=O)c1OC` the figure was -29.7%; with `Cc1noc(C)c1C(=O)NCc1ccccc1F`, 8.43%; with `C=CCn1c(C(C)NC(=O)c2ccc(C)cc2)n[nH]c1=S` (stereo not shown), 7.9%.
For `COC(=O)Nc1ccc(C)cc1NC(=O)OC`, the “hERG current change (%, negative = inhibition) at 1uM” value turned out to be 11.3%.
The value for `Cc1cc(C)cc(C(N)=Nc2cccc(C#N)c2)c1` was -4.53%.
The value for `Cc1ccc(C(=O)NNC2=Nc3cccc4cccc2c34)cc1` was 8.46%; that for `Cc1cccc(OCCCn2c(CO)nc3ccccc32)c1` was 9.01%.
Turning to `CNC.Cc1cccn2c(NCC3CCCO3)c(C(C)C)nc12.Cl` (stereo not shown), the “hERG current change (%, negative = inhibition) at 1uM” value is recorded as -2.88%.
With `CCc1ccc2[nH]c(=O)c(CN(Cc3ccc4c(c3)OCO4)Cc3nnnn3C3CCCC3)cc2c1` the figure was 3.78%; with `CC(=O)c1cccc(NC(=O)N2CCC(NC(=O)c3ccco3)CC2)c1`, -13.1%; with `CCOC(=O)c1ccc(S(=O)(=O)n2c(=O)oc3ccccc32)cc1`, 8.39%.
The value for `O=C(OCc1ccc(Cl)cc1)c1cnccn1` was 6.49%; that for `COCCNc1nnc(SCC(=O)NNC(=O)c2ccc([N+](=O)[O-])cc2)s1` was 7.41%.
Consider `COc1ccccc1-c1sc2cc3c(cc2c1C#Cc1ccccn1)OCO3`, for which the “hERG current change (%, negative = inhibition) at 1uM” value is 7.13%.
With `COc1ccc(CC(=O)NCC2CCCN(Cc3ccc(SC)cc3)C2)cc1` (stereo not shown) the figure was -17.1%; with `CCCC(=O)Oc1cccc(C2NC(=O)c3ccccc3O2)c1` (stereo not shown), 13.4%; with `c1ccc(-c2cc(-c3nc(-c4ccccn4)no3)c3ccccc3n2)cc1`, 0.957%.
With `O=C(Cc1cccs1)Nc1nnc(SCc2ccc(C(F)(F)F)cc2)s1` the figure was 17.4%; with `Cc1ccc(CN2C(=O)CCC2C(=O)NCc2ccco2)cc1` (stereo not shown), -0.469%.
With `CSCc1cc(N2CCOCC2)nc(-c2ccccc2)n1` the figure was 7.16%.
In the case of `Cc1[nH]nc(N)c1-c1ccccc1`, the “hERG current change (%, negative = inhibition) at 1uM” value came to 12.8%.
The value for `Cn1c(=O)cc(Nc2ccc(Cl)cc2)[nH]c1=O` was 14.5%; that for `O=C1CC(c2ccccc2)Sc2ccccc2N1` (stereo not shown) was -8.7%; that for `O=C(Nc1cccc(-c2nn[nH]n2)c1)c1cccs1` was 15%.
With `CCOC(=O)c1cnc2c(cnn2C)c1Oc1ccc(OC)cc1` the figure was 3.39%; with `C=C(c1ccccc1)c1ccccc1N`, 10.7%; with `Cc1cc(C)cc(NC(=O)C2CCN(c3nc(C)cc(C)n3)CC2)c1`, 1.5%.
As for `CCOC(=O)c1ccccc1NC(=O)CSc1nc(N)cc(=O)[nH]1`, the “hERG current change (%, negative = inhibition) at 1uM” value was determined as 12.6%.
In the case of `Cc1cccnc1NC(=O)CCNC(=O)c1ccc(Cl)cc1`, the “hERG current change (%, negative = inhibition) at 1uM” value is recorded as 13.3%.
The value for `CCCCn1c(CNC(=O)CCC)nc2ccccc21` was -6.72%; that for `COc1ccc(CCn2cc(C#N)c(=O)[nH]c2=O)cc1OC` was 16.9%.
With `O=C(CSC1CS(=O)(=O)c2cc([N+](=O)[O-])ccc21)NNC(=O)c1ccc(Cl)cc1` (stereo not shown) the figure was -19%; with `Cn1c(SCC(=O)N(C2CCCCC2)C2CCCCC2)nnc1-c1cccs1`, 3.68%; with `Cc1ccc(NC(=O)CSC2=NCCN2)cc1.Cl`, 18%.
For the compound `CC1COC2N=C(N[N+](=O)[O-])NC2O1` (stereo not shown), the “hERG current change (%, negative = inhibition) at 1uM” value is reported as 32.2%.
Take `COc1ccc(NC(=O)CN(C)C(=O)c2c(C)nn(Cc3ccc(C)cc3)c2Cl)cc1`: the “hERG current change (%, negative = inhibition) at 1uM” value came to 0.744%.
In the case of `O=S(=O)(c1cccc(-c2nc3ccccc3s2)c1)N1CCOCC1`, the “hERG current change (%, negative = inhibition) at 1uM” value amounted to 3.78%.
As to `O=C(NCCn1cccn1)c1ccc(OC2CCN(CCc3ccccc3)CC2)cc1`, the “hERG current change (%, negative = inhibition) at 1uM” value is -1.71%.
The value for `CCN(CC(=O)Nc1ccccc1C(F)(F)F)C(=O)C1CSC2(C)CCC(=O)N12` (stereo not shown) was 6.27%; that for `Cc1ccc(/C=N/NC(=O)c2nnn(-c3nonc3N)c2-c2cccs2)cc1` was 12.2%; that for `CCN(CC)c1ccc(CNc2nc3ccccc3n2CC)cc1` was -12.9%.
The value for `CCN(C(=O)CSc1nc(N)cc(=O)[nH]1)C1CCS(=O)(=O)C1` (stereo not shown) was 10.2%.
As to `COc1ccccc1N(CC(=O)NC1CCCCC1)C(=O)c1csnn1`, the “hERG current change (%, negative = inhibition) at 1uM” value is recorded as 12%.
With `C[n+]1c2n(c3ccccc31)N=C(c1ccc(-c3ccccc3)cc1)CS2.[Br-]` the figure was -39%.
With `CCOC(=O)/C(=C/c1c(C)n(C)c2ccc([N+](=O)[O-])cc12)C(C)=O` the figure was -5.86%.

The values above are taken from article PMC4336329 (PLoS ONE, 2015).
